Some of the results follow. Sequences were assembled here from the parent chain. Inactive controls read about 0.05.
B1: TEV protease; numbered along this chain (parent)
chain: MGESLFKGPRDYNPISSSICHLTNESDGHTTSLYGIGFGPFIITNKHLFRRNNGTLVVQSLHGVFKVKDTTTLQQHLVDGRDMIIIRMPKDFPPFPQKLKFREPQREERICLVTTNFQTKSMSSMVSDTSCTFPSGDGIFWKHWIQTKDGQCGSPLVSTRDGFIVGIHSASNFTNTNNYFTSVPKNFMELLTNQEAQQWVSGWRLNADSVLWGGHKVFMVKPEEPFQPVKEATQL

Variants of: B1
Experiment: raw area under fraction-flipped curve 0-4 h after induction (AUC4h, not background-subtracted), DNA-recorder readout of cleavage of the substrate (dimensionless); higher = more cleavage of the substrate by the protease variant
Conditions: temperature: 34 °C; time window: 0-4 h after rhamnose induction
Description: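 In vivo DNA recorder in E. coli TOP10(DE3) ΔrhaA at 34 °C. Each TEVp single-site mutant (parent TEVp 0) is paired with a single-site variant of the 7-mer TEVs (canonical ENLYFQ|S). The substrate sits between flexible linkers in a Bxb1-sfGFP-TEVs-SsrA fusion, so cleavage stabilises Bxb1 and speeds flipping of a recombination array, read by NGS. The value is the raw area under the fraction-flipped curve over 0-4 h after rhamnose induction (AUC4h), with ≥20 reads per time point. It is not background-subtracted; inactive controls average about 0.047.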
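Further: Bxb1 expression induced with 0.2% (w/v) L-rhamnose at OD600 near 0.5, cultures sampled hourly, flipped fraction per protease–substrate barcode pair counted by paired-end Illumina sequencing.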

| Variant | area with substrate EALYFQS | area with substrate ECLYFQS | area with substrate EDLYFQS | area with substrate EELYFQS | area with substrate EGLYFQS | area with substrate EILYFQS | area with substrate EKLYFQS | area with substrate ELLYFQS | area with substrate EMLYFQS | area with substrate EPLYFQS | area with substrate EQLYFQS | area with substrate ERLYFQS | area with substrate ESLYFQS | area with substrate ETLYFQS | area with substrate EVLYFQS | area with substrate EWLYFQS | area with substrate EFLYFQS | area with substrate EHLYFQS | area with substrate EYLYFQS |
| --- | --- | --- | --- | --- | --- | --- | --- | --- | --- | --- | --- | --- | --- | --- | --- | --- | --- | --- | --- |
| P14Y | 0.107 | 0.0807 | 0.103 | 0.07 | 0.0903 | 0.0819 | 0.11 | 0.0846 | 0.0952 | 0.126 | 0.0997 | 0.101 | 0.0998 | 0.125 | 0.0836 | 0.0784 | – | – | – |
| I15D | 0.113 | 0.0574 | 0.108 | 0.0969 | 0.066 | 0.0631 | 0.074 | – | – | 0.0862 | 0.0854 | 0.0725 | 0.0821 | 0.0932 | 0.0709 | 0.0622 | 0.0696 | 0.0921 | – |
| I15E | 0.0825 | 0.0728 | 0.099 | 0.0943 | 0.0844 | 0.0656 | 0.0897 | 0.0317 | – | 0.087 | 0.0438 | 0.0725 | 0.0854 | 0.092 | 0.076 | 0.0659 | – | 0.0591 | 0.0857 |
| I15K | 0.0692 | 0.0757 | 0.0786 | 0.0698 | 0.063 | 0.0605 | 0.057 | 0.0629 | 0.0663 | 0.0612 | 0.0805 | – | 0.0656 | – | 0.0554 | – | – | 0.0551 | 0.0607 |
| I15Q | 0.107 | 0.103 | 0.0995 | 0.109 | 0.0959 | 0.086 | 0.09 | – | 0.0768 | 0.097 | 0.109 | 0.0919 | 0.0964 | 0.111 | 0.108 | 0.109 | 0.109 | 0.106 | 0.106 |
| S17A | 0.145 | 0.127 | 0.0957 | – | 0.0746 | 0.114 | – | – | 0.134 | – | 0.12 | 0.114 | 0.0893 | 0.0717 | 0.0887 | – | 0.134 | 0.112 | – |
| S18A | 0.114 | 0.117 | 0.0929 | 0.09 | – | 0.0933 | 0.12 | 0.0693 | 0.108 | 0.123 | 0.0964 | 0.113 | 0.114 | – | – | 0.104 | 0.101 | 0.123 | – |
| I19K | 0.084 | 0.0706 | 0.0786 | 0.0948 | – | 0.0866 | 0.104 | 0.0579 | – | 0.0691 | 0.0734 | 0.0597 | 0.0735 | – | 0.067 | 0.058 | – | – | – |
| I19P | 0.0427 | 0.0561 | 0.0506 | 0.0262 | – | 0.0447 | 0.0502 | 0.0505 | 0.0494 | 0.0454 | 0.0502 | 0.0479 | 0.0387 | – | 0.0509 | – | 0.0782 | 0.044 | 0.0309 |
| I19V | 0.114 | 0.139 | 0.117 | 0.12 | 0.0973 | 0.0887 | 0.131 | 0.0997 | – | 0.143 | 0.129 | 0.102 | 0.1 | 0.107 | 0.0966 | 0.103 | – | 0.111 | – |
| I19Y | 0.0805 | 0.0819 | 0.101 | 0.0847 | – | 0.0657 | 0.0649 | 0.0593 | 0.0873 | 0.054 | 0.0908 | 0.0626 | 0.0748 | 0.0782 | 0.0751 | 0.0636 | 0.0668 | 0.0553 | 0.0399 |
| C20N | 0.0652 | 0.0507 | 0.0708 | 0.068 | 0.0557 | 0.0641 | 0.0623 | 0.0732 | 0.0558 | – | 0.0716 | 0.0608 | 0.0598 | – | 0.0472 | 0.0709 | 0.0679 | – | 0.0701 |
| C20Q | 0.0978 | 0.0555 | 0.0543 | 0.0571 | 0.0486 | – | 0.0499 | 0.0559 | 0.0488 | 0.0568 | – | 0.0533 | 0.0718 | – | 0.0529 | – | – | – | 0.0543 |
| H21A | 0.0951 | 0.0876 | 0.115 | – | 0.0928 | 0.0975 | – | 0.098 | 0.104 | 0.104 | 0.114 | 0.0873 | 0.104 | 0.105 | 0.0927 | 0.0964 | 0.097 | – | – |
| H21C | 0.0924 | 0.0875 | 0.112 | – | 0.0923 | 0.0981 | 0.103 | – | 0.108 | – | 0.0975 | 0.105 | 0.195 | – | 0.0716 | 0.0946 | – | 0.0966 | – |
| H21Q | 0.108 | 0.102 | 0.124 | 0.122 | 0.0869 | 0.11 | 0.116 | – | 0.13 | 0.112 | 0.147 | 0.107 | 0.114 | – | – | 0.0843 | 0.0471 | 0.11 | – |
| L22E | 0.0433 | 0.0519 | 0.0479 | 0.0362 | 0.0448 | 0.0422 | 0.0496 | 0.0454 | – | 0.0425 | – | – | 0.0384 | – | 0.0569 | 0.0476 | – | 0.0505 | 0.0371 |
| L22I | 0.0863 | 0.0926 | 0.133 | – | 0.103 | 0.105 | 0.122 | – | 0.127 | 0.0984 | 0.13 | 0.107 | 0.109 | – | 0.0913 | – | – | 0.138 | 0.101 |
| L22P | 0.0485 | 0.0487 | 0.0218 | 0.0468 | 0.0217 | – | 0.0469 | 0.043 | 0.0479 | 0.0442 | 0.0506 | 0.0385 | 0.038 | 0.0315 | 0.0595 | 0.043 | 0.0328 | – | 0.0424 |
| T23C | 0.114 | 0.0979 | 0.116 | 0.12 | 0.0732 | 0.0823 | 0.0813 | 0.0853 | 0.0842 | 0.113 | 0.111 | – | 0.105 | – | 0.0882 | – | – | – | 0.0713 |
| T23L | 0.12 | 0.116 | 0.125 | – | 0.0875 | 0.0911 | 0.107 | 0.0946 | 0.114 | 0.111 | 0.121 | – | 0.0908 | – | 0.0904 | – | 0.097 | – | 0.105 |
| T23N | 0.0782 | 0.0759 | 0.114 | 0.117 | – | 0.0992 | 0.11 | 0.0294 | 0.0913 | 0.109 | 0.0967 | 0.0899 | 0.089 | 0.13 | 0.09 | – | 0.0796 | 0.0963 | 0.0684 |
| T23Y | 0.0968 | 0.0766 | 0.0998 | 0.101 | – | 0.0837 | 0.0759 | – | 0.0849 | 0.108 | 0.105 | 0.0909 | 0.0892 | 0.1 | 0.09 | 0.103 | 0.0892 | 0.0944 | 0.0909 |
